# Assay results: the supplement of paper PMC8728848
# This is one part of the list.
# What was measured:
# Test in all cases: glycan array binding signal (z-score within array); higher = stronger binding
# Conditions in all cases: glycan notation: IUPAC condensed, linker removed
# [1] = target: Man(a1-2)Man(a1-3)[Man(a1-2)Man(a1-6)]Man
# Method in brief: (§1)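 Arrays were curated from the Consortium for Functional Glycomics database, 3228 in total, and kept only where the protein sequence was available. Binding is expressed as a within-array Z-score. This score was averaged across arrays of the same protein sequence at different concentrations or buffers and across linkers, and negative values can be read as non-binding.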
# [2] = target: Man(a1-2)Man(a1-3)[Man(a1-2)Man(a1-6)]Man(a1-6)[Man(a1-2)Man(a1-2)Man(a1-3)]Man
# Method in brief: as §1
# [3] = target: Man(a1-2)Man(a1-3)[Man(a1-2)Man(a1-6)]Man(a1-6)[Man(a1-2)Man(a1-2)Man(a1-3)]Man(b1-4)GlcNAc(b1-4)GlcNAc
# Method in brief: as §1
# [4] = target: Man(a1-2)Man(a1-3)[Man(a1-6)]Man(a1-6)[Man(a1-2)Man(a1-3)]Man(b1-4)GlcNAc(b1-4)GlcNAc
# Method in brief: as §1
# [5] = target: Man(a1-2)Man(a1-6)[Man(a1-3)]Man(a1-6)[Man(a1-2)Man(a1-2)Man(a1-3)]Man
# Method in brief: as §1
# [6] = target: Man(a1-2)Man(a1-6)[Man(a1-3)]Man(a1-6)[Man(a1-2)Man(a1-2)Man(a1-3)]Man(b1-4)GlcNAc(b1-4)GlcNAc
# Method in brief: as §1
# Man(a1-3)[Man(a1-6)]Man = target: Man(a1-3)[Man(a1-6)]Man
# Method in brief: as §1
# [7] = target: Man(a1-3)[Man(a1-6)]Man(a1-6)[Man(a1-2)Man(a1-3)]Man(b1-4)GlcNAc(b1-4)GlcNAc
# Method in brief: as §1
# [8] = target: Man(a1-3)[Man(a1-6)]Man(a1-6)[Man(a1-3)]Man
# Method in brief: as §1
# [9] = target: Man(a1-3)[Man(a1-6)]Man(a1-6)[Man(a1-3)]Man(b1-4)GlcNAc(b1-4)GlcNAc
# Method in brief: as §1
# [10] = target: Man(a1-3)[Man(a1-6)]Man(b1-4)GlcNAc(b1-4)GlcNAc
# Method in brief: as §1
# [11] = target: Man(a1-3)[Man(a1-6)]Man(b1-4)GlcNAc(b1-4)[Fuc(a1-6)]GlcNAc
# Method in brief: as §1
# Man(a1-6)Man = target: Man(a1-6)Man
# Method in brief: as §1
# Man(b1-4)GlcNAc = target: Man(b1-4)GlcNAc
# Method in brief: as §1
# MurNAc(b1-4)GlcNAc = target: MurNAc(b1-4)GlcNAc
# Method in brief: as §1
# Neu5Ac(a2-3)Gal = target: Neu5Ac(a2-3)Gal
# Method in brief: as §1
# [12] = target: Neu5Ac(a2-3)Gal(b1-3)GalNAc
# Method in brief: as §1
# [13] = target: Neu5Ac(a2-3)Gal(b1-3)GalNAc(b1-3)Gal(a1-4)Gal(b1-4)Glc
# Method in brief: as §1
# [14] = target: Neu5Ac(a2-3)Gal(b1-3)GalNAc(b1-4)[Neu5Ac(a2-3)]Gal(b1-4)Glc
# Method in brief: as §1
# [15] = target: Neu5Ac(a2-3)Gal(b1-3)GalNAc(b1-4)[Neu5Ac(a2-8)Neu5Ac(a2-3)]Gal(b1-4)Glc
# Method in brief: as §1
# [16] = target: Neu5Ac(a2-3)Gal(b1-3)GalNAc6S
# Method in brief: as §1
# [17] = target: Neu5Ac(a2-3)Gal(b1-3)GlcNAc
# Method in brief: as §1
# [18] = target: Neu5Ac(a2-3)Gal(b1-3)GlcNAc(b1-2)Man
# Method in brief: as §1
# [19] = target: Neu5Ac(a2-3)Gal(b1-3)GlcNAc(b1-2)Man(a1-3)[GlcNAc(b1-4)][Neu5Ac(a2-3)Gal(b1-3)GlcNAc(b1-2)Man(a1-6)]Man(b1-4)GlcNAc(b1-4)GlcNAc
# Method in brief: as §1
# [20] = target: Neu5Ac(a2-3)Gal(b1-3)GlcNAc(b1-2)Man(a1-3)[Neu5Ac(a2-3)Gal(b1-3)GlcNAc(b1-2)Man(a1-6)]Man(b1-4)GlcNAc(b1-4)GlcNAc
# Method in brief: as §1
# [21] = target: Neu5Ac(a2-3)Gal(b1-3)GlcNAc(b1-3)Gal(b1-3)GlcNAc
# Method in brief: as §1
# [22] = target: Neu5Ac(a2-3)Gal(b1-3)GlcNAc(b1-3)Gal(b1-4)GlcNAc
# Method in brief: as §1
# [23] = target: Neu5Ac(a2-3)Gal(b1-3)GlcNAc(b1-3)GalNAc
# Method in brief: as §1
# [24] = target: Neu5Ac(a2-3)Gal(b1-3)GlcNAc(b1-4)Gal(b1-4)Glc
# Method in brief: as §1
# [25] = target: Neu5Ac(a2-3)Gal(b1-3)GlcNAc(b1-6)GalNAc
# Method in brief: as §1
# [26] = target: Neu5Ac(a2-3)Gal(b1-3)GlcNAc6S
# Method in brief: as §1
# [27] = target: Neu5Ac(a2-3)Gal(b1-3)[Fuc(a1-4)]GlcNAc
# Method in brief: as §1
# [28] = target: Neu5Ac(a2-3)Gal(b1-3)[Fuc(a1-4)]GlcNAc(b1-3)Gal(b1-3)[Fuc(a1-4)]GlcNAc
# Method in brief: as §1
# [29] = target: Neu5Ac(a2-3)Gal(b1-3)[Fuc(a1-4)]GlcNAc(b1-3)Gal(b1-4)[Fuc(a1-3)]GlcNAc
# Method in brief: as §1
# [30] = target: Neu5Ac(a2-3)Gal(b1-3)[GlcNAc(b1-6)]GalNAc
# Method in brief: as §1
# [31] = target: Neu5Ac(a2-3)Gal(b1-3)[Neu5Ac(a2-6)]GalNAc
# Method in brief: as §1
# [32] = target: Neu5Ac(a2-3)Gal(b1-3)[Neu5Ac(a2-6)]GlcNAc(b1-3)[Fuc(a1-3)[Gal(b1-4)]GlcNAc(b1-6)]Gal(b1-4)Glc
# Method in brief: as §1
# [33] = target: Neu5Ac(a2-3)Gal(b1-3)]Neu5Ac(a2-3)Gal(b1-4)]GlcNAc
# Method in brief: as §1
# Neu5Ac(a2-3)Gal(b1-4)Glc = target: Neu5Ac(a2-3)Gal(b1-4)Glc
# Method in brief: as §1
# [34] = target: Neu5Ac(a2-3)Gal(b1-4)GlcNAc
# Method in brief: as §1
# [35] = target: Neu5Ac(a2-3)Gal(b1-4)GlcNAc(b1-2)Man
# Method in brief: as §1
# [36] = target: Neu5Ac(a2-3)Gal(b1-4)GlcNAc(b1-2)Man(a1-3)[GlcNAc(b1-4)][Neu5Ac(a2-3)Gal(b1-4)GlcNAc(b1-2)Man(a1-6)]Man(b1-4)GlcNAc(b1-4)GlcNAc
# Method in brief: as §1
# [37] = target: Neu5Ac(a2-3)Gal(b1-4)GlcNAc(b1-2)Man(a1-3)[Neu5Ac(a2-3)Gal(b1-4)GlcNAc(b1-2)Man(a1-6)]Man(b1-4)GlcNAc(b1-4)GlcNAc
# Method in brief: as §1
# [38] = target: Neu5Ac(a2-3)Gal(b1-4)GlcNAc(b1-2)Man(a1-3)[Neu5Ac(a2-3)Gal(b1-4)GlcNAc(b1-2)Man(a1-6)]Man(b1-4)GlcNAc(b1-4)[Fuc(a1-6)]GlcNAc
# Method in brief: as §1
# [39] = target: Neu5Ac(a2-3)Gal(b1-4)GlcNAc(b1-2)Man(a1-3)[Neu5Ac(a2-6)Gal(b1-4)GlcNAc(b1-2)Man(a1-6)]Man(b1-4)GlcNAc(b1-4)GlcNAc
# Method in brief: as §1
binder,measurement,setting,value
CAA (Caragana arborescens) (protein) VAVEFDTFDNPDWDPRTKHIGIDVNSIRSNKTTQWGFWNRQVADVDISYEASSKTLNVSLYYPGESYIVTDVVDLKDILPEWVRIGF,glycan array binding signal (z-score),[1],-0.246
same,glycan array binding signal (z-score),[2],-0.246
same,glycan array binding signal (z-score),[3],-0.158
same,glycan array binding signal (z-score),[4],-0.236
same,glycan array binding signal (z-score),[5],-0.227
same,glycan array binding signal (z-score),[6],-0.179
same,glycan array binding signal (z-score),Man(a1-3)[Man(a1-6)]Man,-0.244
same,glycan array binding signal (z-score),[7],-0.145
same,glycan array binding signal (z-score),[8],-0.238
same,glycan array binding signal (z-score),[9],-0.221
same,glycan array binding signal (z-score),[10],0.544
same,glycan array binding signal (z-score),[11],0.457
same,glycan array binding signal (z-score),Man(a1-6)Man,-0.202
same,glycan array binding signal (z-score),Man(b1-4)GlcNAc,-0.201
same,glycan array binding signal (z-score),MurNAc(b1-4)GlcNAc,-0.245
same,glycan array binding signal (z-score),Neu5Ac(a2-3)Gal,-0.241
same,glycan array binding signal (z-score),[12],-0.244
same,glycan array binding signal (z-score),[13],-0.235
same,glycan array binding signal (z-score),[14],-0.233
same,glycan array binding signal (z-score),[15],-0.247
same,glycan array binding signal (z-score),[16],-0.243
same,glycan array binding signal (z-score),[17],-0.245
same,glycan array binding signal (z-score),[18],-0.219
same,glycan array binding signal (z-score),[19],-0.242
same,glycan array binding signal (z-score),[20],0.175
same,glycan array binding signal (z-score),[21],-0.241
same,glycan array binding signal (z-score),[22],-0.248
same,glycan array binding signal (z-score),[23],-0.246
same,glycan array binding signal (z-score),[24],-0.244
same,glycan array binding signal (z-score),[25],-0.245
same,glycan array binding signal (z-score),[26],-0.214
same,glycan array binding signal (z-score),[27],-0.243
same,glycan array binding signal (z-score),[28],-0.24
same,glycan array binding signal (z-score),[29],-0.242
same,glycan array binding signal (z-score),[30],-0.241
same,glycan array binding signal (z-score),[31],-0.24
same,glycan array binding signal (z-score),[32],-0.243
same,glycan array binding signal (z-score),[33],-0.231
same,glycan array binding signal (z-score),Neu5Ac(a2-3)Gal(b1-4)Glc,-0.24
same,glycan array binding signal (z-score),[34],-0.241
same,glycan array binding signal (z-score),[35],-0.233
same,glycan array binding signal (z-score),[36],-0.248
same,glycan array binding signal (z-score),[37],-0.211
same,glycan array binding signal (z-score),[38],0.32
same,glycan array binding signal (z-score),[39],-0.218
